Key:
[1] = target: mouse Gal3 (Mus musculus, UniProt P16110); assay: Affinity kinetics to mouse Gal3 (Carterra LSA); type: binding; conditions: Example 14
Experimental: Kinetics experiments were performed on a Carterra LSA at 25° C.
Then, a dilution series of Gal3 (2, 4, 8, 16, 32, 64, and 128 nM) in HBSTE with 0.5 mg/mL BSA was injected to the whole array for 300 seconds to allow association followed by dissociation for 240 seconds. The kinetics constants were calculated by the software NextGenKIT.
The affinity of Gal3 binding to antibody was determined by acquiring real time Ligand:Analyte binding kinetics data and fitting the data with a 1:1 monovalent binding model. The kinetic evaluation procedure determines association and dissociation constants by fitting the experimental data to a 1:1 interaction model between analyte A and ligand B:
The affinity KD is the result of Kd divided by Ka.
The protocol disclosed in Example 9 was generally followed.

[2] = target: T1, Human Gal3 peptides (Homo sapiens, UniProt P17931); assay: Gal3 peptide binding ELISA (Example 8); conditions: antibody 5 μg/mL
T1 construct: purchased LifeTein custom order
Summary of the method: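 Reformatted hIgG4 (S228P) anti-Gal3 antibodies were tested at 5 μg/mL for 1 h at room temperature against immobilised human Gal3 peptides (≥100 μg/mL coating) or protein (1 μg/mL coating) on BSA-blocked plates. Bound antibody read by peroxidase goat anti-human IgG with TMB at 450 nm.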

[3] = test system: L6 myoblasts; assay: Antibody internalization into skeletal muscle cells; type: cell-based, rat; conditions: with 2 or 10 μg/mL Gal3 or without Gal3, 3 hours
Experimental: It was tested whether anti-Gal3 antibodies were internalized into skeletal muscle cells. L6 myoblasts were seeded at a density of 10000 cells per well in a black clear bottom 96 well plate in L6 complete medium. The next day, the cells were serum starved using serum-free medium in the morning for 2 hours before proceeding with the following internalization experiment. […] The fluorophore-conjugated antibodies were then mixed with Gal3 protein (2 μg/mL or 10 μg/mL Gal3) or without Gal3 as control, and this mixture was added to the myoblasts. After 3 hours of incubation, fluorescent images of the cells were taken.

[4] = test system: GLUT4 translocation in L6 GLUT4myc myoblasts; assay: Insulin-independent GLUT4 translocation by Gal3-antibody complex; type: cell-based, rat
Experimental: Rat L6 GLUT4myc myoblasts (Kerafast #ESK202-FP) express a Myc-tagged GLUT4 that can be detected with an anti-Myc antibody. These cells were grown in a 48-well plate in MEM u growth media (Gibco, #12-571-063)+10% fetal bovine serum (FBS; Corning #35-016-CV) until 90-95% confluence was reached. Cells were then washed in PBS and serum starved for 2 hours in MEM u growth media without FBS. Thirty (30) μg/mL recombinant human Gal3 (TrueBinding QCB200347) was pre-incubated with 60 μg/mL anti-Gal3 antibodies for 30 minutes before being added to the serum-starved cells for 1 hour at 37° C. At the end of incubation, half of the cells were treated with 100 nM insulin (Sigma-Aldrich #I5523-50MG) for 20 minutes while the other half acted as basal controls. After 20 minutes, cells were washed quickly with ice cold PBS twice, then incubated with 4% paraformaldehyde (Boster Bio #AR1068) for 10 minutes on ice followed by 10 minutes at room temperature. The cells were washed three times with PBS, then blocked with 0.5 mL 5% goat serum (Vector Laboratories #101098-382) in PBS for 15 minutes. […] Samples were read at 450 nm on a SpectraMax plate reader. […] Statistical significance was determined using unpaired T-tests comparing samples treated with Gal3 and insulin with all other conditions. […]

T1 sequence (P17931 52-71): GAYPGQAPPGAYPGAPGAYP
mouse Gal3, sequence (P16110 whole entry): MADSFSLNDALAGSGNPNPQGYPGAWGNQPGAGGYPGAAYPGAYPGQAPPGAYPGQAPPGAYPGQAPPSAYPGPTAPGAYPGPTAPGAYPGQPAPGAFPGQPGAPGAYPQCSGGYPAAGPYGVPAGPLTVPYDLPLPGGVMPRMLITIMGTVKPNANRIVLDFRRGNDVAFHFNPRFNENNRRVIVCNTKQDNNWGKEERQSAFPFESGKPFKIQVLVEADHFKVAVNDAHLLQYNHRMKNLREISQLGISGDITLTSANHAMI

average affinity to mouse Gal3 [1]: did not show any binding activity
binding to Gal3 peptide 6 (SEQ ID NO: 8) [2]: bound
B1: TB006: humanized anti-Gal3 antibody derived from mouse mAb, hIgG4 backbone (antibody)
heavy: QVQLVQSGAEVKKPGASVKVSCKASGYSFTNYYMHWVRQAPGQRLEWMGWIYPGSGNTNYNEKFQGRVTITADTSASTAYMELSSLRSEDTAVYYCSTAPGGFDVWGQGTTVTVSSASTKGPSVFPLAPCSRSTSESTAALGCLVKDYFPEPVTVSWNSGALTSGVHTFPAVLQSSGLYSLSSVVTVPSSSLGTKTYTCNVDHKPSNTKVDKRV[in this place human IgG4 Fc with S228P (EU numbers)]
light: DIVMTQTPLSLSVTPGQPASISCKSSKSLLHSDGITYLYWYLQKPGQSPQLLIYRMSNLASGVPDRFSGSGSGTDFTLKISRVEAEDVGVYYCAQMLEFPLTFGQGTKLEIKRTVAAPSVFIFPPSDEQLKSGTASVVCLLNNFYPREAKVQWKVDNALQSGNSQESVTEQDSKDSTYSLSSTLTLSKADYEKHKVYACEVTHQGLSSPVTKSFNRGEC
modifications: TB006 heavy chain peptide sequence; TB006 light chain peptide sequence
notes: humanized anti-Gal3 antibody derived from mouse mAb, hIgG4 backbone
internalization of fluorophore-conjugated antibody into myoblasts [3]: internalized into the myoblasts only in the presence of Gal3
surface GLUT4 levels, preincubated antibody-Gal3 complex ([4]; 30 μg/mL human Gal3 + 60 μg/mL antibody, no insulin): increased surface GLUT4 levels independent of insulin
GLUT4 translocation, antibody alone ([4]; no Gal3, no insulin): did not result in comparable induction of GLUT4 translocation
